Test results published in the supplement of paper PMC12645437, “Orthogonal IMiD-Degron Pairs Induce Selective Protein Degradation in Cells” (ACS Chemical Biology, 2025).
The list shows a part of the results.

target: no compound (DMSO); assay: log2 fold change of degron read counts, EGFP-low vs EGFP+ sorted cells; higher = lower degron-EGFP level without compound (poor expression or instability); settings: compound: DMSO control; 18 h
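Also: jurkat cells carrying a lentiviral library of mutant zinc finger degrons fused to EGFP plus mCherry, mCherry+ cells FACS sorted, degron abundance counted by next-generation sequencing.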

Sequence | log2 fold change of degron read counts
FQCEQCGANFTQKGNLLRHIKL | -1.88
FFCDICGAMFTQKGNLLRHIKL | -0.568
FSCNICGAFFTQKGNLLRHIKL | 0.216
FYCEICGRSFTQKGNLLRHIKL | -2.72
FDCEVCGARFTQKGNLLRHIKL | -1.47
FICNVCGARFTQKGNLLRHIKL | -1.17
FLCEQCGACFTQKGNLLRHIKL | -1.68
FVCNQCGHHFTQKGNLLRHIKL | -0.993
FLCPICGAWFTQKGNLLRHIKL | 0.997
FWCNQCGRDFTQKGNLLRHIKL | -0.375
FSCPVCGAWFTQKGNLLRHIKL | 0.206
LGCEICGFQCTQKGNLLRHIKL | 0.246
FRCSVCGHEFTQKGNLLRHIKL | -1.39
LMCEICGFKCTQKGNLLRHIKL | -0.412
FWCDVCGAGFTQKGNLLRHIKL | -1.15
FCCNQCGRFFTQKGNLLRHIKL | 0.968
FRCSVCGHNFTQKGNLLRHIKL | 0.0813
FGCPICGHGFTQKGNLLRHIKL | -0.0704
FWCNICGAEFTQKGNLLRHIKL | 0.305
FHCPICGHHFTQKGNLLRHIKL | 0.0381
LFCPICGFSCTQKGNLLRHIKL | 1
FLCSVCGHIFTQKGNLLRHIKL | 0.793
FKCNICGAWFTQKGNLLRHIKL | 0.291
FTCNQCGHTFTQKGNLLRHIKL | -0.814
FRCEQCGAPFTQKGNLLRHIKL | -1.27

Sequence | log2 fold change of degron read counts
FMCDVCGALFTQKGNLLRHIKL | -0.6
FCCDVCGAAFTQKGNLLRHIKL | -2.64
LDCPICGFECTQKGNLLRHIKL | -0.274
FECDICGATFTQKGNLLRHIKL | -1.66
FFCPICGRCFTQKGNLLRHIKL | -0.469
FWCEVCGALFTQKGNLLRHIKL | 0.181
FWCPICGHRFTQKGNLLRHIKL | 1.01
FCCEQCGAHFTQKGNLLRHIKL | -2.29
FHCNICGASFTQKGNLLRHIKL | -0.498
FECPVCGAKFTQKGNLLRHIKL | -0.402
FWCNQCGHDFTQKGNLLRHIKL | 0.667
FYCEICGRFFTQKGNLLRHIKL | 0.47
LFCNQCGFLCTQKGNLLRHIKL | 2.35
FNCEICGRIFTQKGNLLRHIKL | -1.08
FICNVCGAPFTQKGNLLRHIKL | -0.0114
FRCEVCGAQFTQKGNLLRHIKL | -1.59
FHCDVCGAFFTQKGNLLRHIKL | -0.502
FNCPICGHAFTQKGNLLRHIKL | -0.783
FNCEICGRFFTQKGNLLRHIKL | -0.728
FKCDICGAGFTQKGNLLRHIKL | -1.02
FRCEQCGAEFTQKGNLLRHIKL | -1.7
LQCPICGFCCTQKGNLLRHIKL | 0.501
LDCNQCGFECTQKGNLLRHIKL | 0.176
FICPQCGADFTQKGNLLRHIKL | -0.815
FYCDICGASFTQKGNLLRHIKL | -1.1
